Test results: PubChem BioAssay (NCI)
Where “and” joins values, the source holds several entries; their conditions need not be identical. Equal values may be shown once.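 Values below derive from 48-hour exposures of cells grown in 96-well plates, with endpoints linearly interpolated between the two concentrations bracketing the appropriate inhibition level. Here, GI50 denotes the concentration required for 50% inhibition of growth. TGI: total growth inhibition.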

What follows are compounds tested on NCI-H322M lung (assay: NCI tumour cell line growth inhibition, 48 h).

Point of comparison: `COc1cc2c(/C=N\N=C(N)N)c(Cl)[nH]c2cc1C`, TGI 9.68 µM. Against it:
- COc1ccc2oc(=N)c(C(=O)Nc3cccc4ccccc34)cc2c1 — higher, > 100 µM
- O=C(O)CSCc1cccc2ccccc12 — higher, > 100 µM
- COC1=CC(c2ccc[nH]2)=N/C1=C\c1[nH]c(C)c(C(=O)OCc2ccccc2)c1C — 9-fold higher, 87.5 µM
- Cc1[nH]ncc1-c1cc2nc(C3CC4CCN3CC4)[nH]c(=O)c2s1 (stereo unspecified) — higher, > 100 µM
- CCOC(=O)c1cn(-c2ccccc2)c(=S)n2c1nc1ccccc12 — higher, > 100 µM
- O=C1c2ccccc2C2(O)Nc3cc(O)ccc3C12O (stereo unspecified) — higher, > 100 µM
- COc1c2c(c3c(c1C1OC(C)[C@@H](C)O1)CC(C)(C)O3)C(=O)c1ccccc1C2=O (stereo partly specified) — higher, > 100 µM
- NNC(=S)N/N=C(\CCCC(=O)NCCc1ccccc1)CC(=O)c1ccccc1 — higher, > 100 µM
- CC[n+]1cnc(N)c2c(-c3ccc(Cl)cc3)cn(-c3ccc(C)cc3)c21 — 3-fold higher, 28.6 µM
- CC1=NN(C(=O)CSc2nnc(SCC(=O)N3N=C(C)CC3(O)c3ccccc3)s2)C(O)(c2ccccc2)C1 (stereo unspecified) — higher, > 100 µM
- C1=C(c2ccccc2)CN(c2ccccc2)OC1 — higher, > 100 µM
- C[N+]1(C)CCCC1C(=O)[O-] (stereo unspecified) — higher, > 100 µM
- CC1CC2C3CC(F)C4=CC(=O)C=CC4(C)C3(F)C(O)CC2(C)C1(O)C(=O)COC(=O)C(C)(C)C (stereo unspecified) — higher, > 100 µM
- O=S(=O)(c1ccc(Br)cc1)n1c2ccc(Br)cc2c2nc3ccccc3nc21 — higher, > 100 µM
- c1csc(-c2ccc(-c3ccc(-c4ccc(-c5cccs5)s4)s3)s2)c1 — higher, > 100 µM
- c1ccc(C2=NC3(CCCCC3)N(c3nc4ccccc4s3)N2)nc1 — higher, > 100 µM
- COC(=O)[C@@H](NC(=O)NC(=O)NC(=O)CI)C(C)C — higher, > 100 µM
- COc1ccc(C#Cc2ccccc2C#CCCCCO)cc1 — 3.8-fold higher, 36.5 µM
- CN1C(=O)c2c(ccc3c2OCO3)C2C(O)Cc3cc4c(cc3C21)OCO4 (stereo unspecified) — higher, > 100 µM
- C=CCC1(O)c2ccccc2C(=O)c2c(O)ccc(O)c21 (stereo unspecified) — higher, > 94.5 µM
- O=C1NC(N/N=C\C(O)C(O)C(O)CO)=N/C1=C/c1ccccc1 (stereo unspecified) — higher, > 100 µM
- CCOC(=O)c1ccc(N=NN(C)C(=O)C(C)N)cc1 (stereo unspecified) — higher, > 100 µM
- CC/C(Cc1ccccc1)=C(\c1ccc(OCCN2CCCCCC2)cc1)c1ccc(OC(=O)NCc2ccccc2)cc1 — within 1.5-fold, 12.5 µM
- COc1cc(/C=C/C(=O)OCC23CC[C@@]4(C(=O)O)CCC(C)[C@H](C)C4C2=CCC2[C@@]4(C)CC[C@H](O)C(C)(C)C4CC[C@]23C)ccc1O (stereo partly specified) — 5.4-fold higher, 51.9 µM
- Cc1ccc(C(=O)O/N=C2/CCCC/C2=C\c2ccccc2)cc1 — higher, > 100 µM
- O=C1CSC2(CC(/C=C/c3ccccc3)=NN2c2cccc(S(=O)(=O)O)c2)N1c1nc2ccccc2s1 (stereo unspecified) — higher, > 100 µM
- COc1cc(C(=O)OCCCCCCCCCCC[P+](c2ccccc2)(c2ccccc2)c2ccccc2)ccc1O — within 1.5-fold, 8.96 µM
- FC(F)(F)C1(Cl)C(c2ccccc2)=C1c1ccccc1 — 3.3-fold higher, 32 µM
- O=C1C2CCCCC2C(=O)N1n1c(Cc2ccc(Cl)cc2)n[nH]c1=O (stereo unspecified) — higher, > 100 µM
- CO[C@H](C(=O)[C@@H](O)[C@@H](C)O)[C@@H]1Cc2cc3cc(O[C@H]4C[C@@H](O[C@H]5C[C@@H](O)[C@H](O)C(C)O5)[C@H](O)C(C)O4)c(C)c(O)c3c(O)c2C(=O)[C@H]1O[C@H]1C[C@@H](O[C@H]2C[C@@H](O[C@H]3C[C@@H](OC)[C@H](O)C(C)O3)[C@@H](O)C(C)O2)C(O)(O)C(C)O1 (stereo partly specified) — higher, > 17.3 µM
- CC(=O)C1=C(O)C=C2Oc3c(C(=O)/C=C/c4cc(C(F)(F)F)cc(C(F)(F)F)c4)c(O)c(C)c(O)c3[C@]2(C)C1=O — 3.5-fold lower, 2.75 µM
- NS(=O)(=O)c1ccc(NC(=O)c2ccc(NC3=C(Cl)C(=O)N(Cc4ccccc4)C3=O)cc2)cc1 — higher, > 100 µM
- Cc1cc(C)nc(NC(N)=NCCc2ccccc2)n1 — 1.6-fold higher, 15.3 µM
- CCC1(C)NN=c2s/c(=C/c3ccc(OC)cc3)c(=O)n2N1 (stereo unspecified) — higher, > 100 µM
- CC(C)(C)OC(=O)NCCNC1=CC(=O)c2nc3ccccc3c3ccnc1c23 — 9.7-fold higher, 93.6 µM
- Nc1ccn(C2OC(CO)C(O)C2F)c(=O)n1 (stereo unspecified) — higher, > 5000 µM
- CCCCNC1CCC2(SCCS2)c2[nH]c3ccccc3c21 (stereo unspecified) — higher, > 100 µM
- Cc1ccc(C2CC(=O)CC(c3ccc(C)cc3)C23C(=O)NC(=O)NC3=O)cc1 (stereo unspecified) — higher, > 100 µM
- CC[C@@]1(O)C(=O)OCc2c1cc1n(c2=O)Cc2c-1nc1ccccc1c2/C=N\NC(=O)C(N)CC(C)C (stereo partly specified) — higher, > 100 µM
- CC1=NN(C(=O)c2ccccc2O)C(=O)/C1=C/c1ccc([N+](=O)[O-])cc1 — higher, > 100 µM

Point of comparison: `CC1=NN(C(=O)c2ccccc2O)C(=O)/C1=C/c1ccc([N+](=O)[O-])cc1`, GI50 2.88 µM. Against it:
- COC1=CC(c2ccc[nH]2)=N/C1=C\c1[nH]c(C)c(C(=O)OCc2ccccc2)c1C — 4.1-fold lower, 0.697 µM
- Cc1[nH]ncc1-c1cc2nc(C3CC4CCN3CC4)[nH]c(=O)c2s1 (stereo unspecified) — within 1.5-fold, 3.61 µM
- COC(=O)[C@@H](NC(=O)NC(=O)NC(=O)CI)C(C)C — higher, > 100 µM
- COc1ccc(C#Cc2ccccc2C#CCCCCO)cc1 — 6.3-fold higher, 18.2 µM
- Cc1ccc(C(=O)N(CCCN)[C@@H](c2nc3cc(Cl)ccc3c(=O)n2Cc2ccccc2)C(C)C)cc1 — lower, < 0.01 µM
- CC/C(Cc1ccccc1)=C(\c1ccc(OCCN2CCCCCC2)cc1)c1ccc(OC(=O)NCc2ccccc2)cc1 — 2-fold higher, 5.83 µM
- COc1cc(C(=O)OCCCCCCCCCCC[P+](c2ccccc2)(c2ccccc2)c2ccccc2)ccc1O — within 1.5-fold, 2.49 µM
- CO[C@H](C(=O)[C@@H](O)[C@@H](C)O)[C@@H]1Cc2cc3cc(O[C@H]4C[C@@H](O[C@H]5C[C@@H](O)[C@H](O)C(C)O5)[C@H](O)C(C)O4)c(C)c(O)c3c(O)c2C(=O)[C@H]1O[C@H]1C[C@@H](O[C@H]2C[C@@H](O[C@H]3C[C@@H](OC)[C@H](O)C(C)O3)[C@@H](O)C(C)O2)C(O)(O)C(C)O1 (stereo partly specified) — 31-fold lower, 0.0918 µM
- CC(=O)C1=C(O)C=C2Oc3c(C(=O)/C=C/c4cc(C(F)(F)F)cc(C(F)(F)F)c4)c(O)c(C)c(O)c3[C@]2(C)C1=O — 5.7-fold lower, 0.508 µM
- NS(=O)(=O)c1ccc(NC(=O)c2ccc(NC3=C(Cl)C(=O)N(Cc4ccccc4)C3=O)cc2)cc1 — 11-fold higher, 32.8 µM
- Cc1cc(C)nc(NC(N)=NCCc2ccccc2)n1 — within 1.5-fold, 2.59 µM
- CC(C)(C)OC(=O)NCCNC1=CC(=O)c2nc3ccccc3c3ccnc1c23 — 8.6-fold higher, 24.9 µM
- Nc1ccn(C2OC(CO)C(O)C2F)c(=O)n1 (stereo unspecified) — higher, > 5000 µM
- COc1cc2c(/C=N\N=C(N)N)c(Cl)[nH]c2cc1C — within 1.5-fold, 2.35 µM

For `COc1cccc2c1C(=O)c1c(O)c3c(c(O)c1C2=O)CC(O)(C(C)=O)CC3OC1CC(N)C(O)C(C)O1` (stereo unspecified), the GI50 was 0.0709 µg/mL.

With `COc1cccc2c1C(=O)c1c(O)c3c(c(O)c1C2=O)CC(O)(C(C)=O)CC3OC1CC(N)C(O)C(C)O1` (stereo unspecified) the TGI was 2.46 µg/mL.

For `Cc1ccc(C(=O)N(CCCN)[C@@H](c2nc3cc(Cl)ccc3c(=O)n2Cc2ccccc2)C(C)C)cc1`, the TGI was 2.86 µM and 1.57 µM.
`CC(C)[C@](O)(c1ccc2cc(OC(F)F)c(OC(F)F)cc2c1)c1cn[nH]n1` was tested, and the TGI was 79.2 µM and 42.8 µM.

For `CC(C)[C@](O)(c1ccc2cc(OC(F)F)c(OC(F)F)cc2c1)c1cn[nH]n1`, the GI50 was 19.9 µM and 16.6 µM.
